Experimental data: PubChem BioAssay (NCI)
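96-well plates; 48 h exposure; 5 concentrations. Endpoints by linear interpolation between flanking doses. Not reached: highest tested concentration assigned. Here, GI50 denotes the concentration required for 50% inhibition of growth. At the TGI there is no net growth.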

Test system: NCI-H322M lung
Assay: inhibition of tumour cell growth, NCI panel, 48 h

Structure (SMILES)	GI50	TGI
O=C(Nc1ccc2c(c1)OCCO2)C(=O)c1c[nH]c2ccccc12	11.6 µM	> 100 µM
NC(CSC(c1ccccc1)(c1ccccc1)c1ccc(F)cc1)C(=O)O (stereo not given)	0.498 µM	> 100 µM
Cc1cc(NS(=O)(=O)c2ccc(Nc3c4ccccc4nc4c(C(=O)NCCO)cccc34)cc2)no1	–	69 µM
O=c1c2c3c(sc2nc2n1N=CN(c1ccc(F)cc1)C2)CCCC3	–	> 100 µM
Cc1cn2c(/C=N/N=C(N)N)c(-c3ccncc3)nc2s1	20.5 µM	35.7 µM
COc1ccc2c(c1)CCc1c(CO)c(COC(=O)NC(C)C)n(C)c1-2	–	> 77.7 µM
O=C(CN(/C=C/C(=O)C(F)(F)F)c1ccccc1)c1ccc(Cl)cc1	17.9 µM	58.5 µM
COc1cc2c(c(OC)c1OC)-c1ccc(SC)c(=O)cc1C(CC(=O)Oc1cccc(F)c1)C2 (stereo not given)	–	> 55.2 µM
O=c1c2cccnc2ncn1CCCN1CCCC1	–	> 100 µM
C=C(CN1c2ccccc2Sc2ccccc21)c1ccc(C(=O)Nc2ccccc2N)cc1	> 82.1 µM	> 100 µM
O=C1C(Cl)=C(NCCF)C(=O)c2ncccc21	–	2.89 µM
O=c1[nH]c(=O)n(C2CC(O)C(CO)O2)cc1COCC(F)(F)F (stereo not given)	–	> 100 µM
Cc1cccc(Nc2cc(Cl)nc(SCC(=O)O)n2)c1C	–	> 100 µM
CCn1c(=N)sc2nc3ccccc3n2c1=O	–	> 100 µM
COc1ccc2[nH]c(C(=O)OCc3ccc4cccc(O)c4n3)cc2c1	1.78 µM	4 µM
CC/C(Cc1ccccc1)=C(/c1ccc(O)cc1)c1ccc(OCCN2CCCC2)cc1	1.6 µM	3.16 µM
COc1cc2nc(-c3cccc4cccnc34)nc(NC3CCN(Cc4ccccc4)CC3)c2cc1OC	1.06 µM	2.29 µM
Nc1c2cc3ccc2nc2ccc(cc12)OCCOCCOCCOCCOCCOCCO3	–	> 10 µM
CC(C)=C1CCC(CN2CCOCC2)C1=O (stereo not given)	–	51.9 µM
COc1cc(-c2nccc3cc4c(cc23)OCO4)cc(OC)c1OC	8.29 µM	> 100 µM
COC(=O)CNC(=O)CCC(C)[C@H]1CCC2C3C(C[C@H](OC(C)=O)[C@@]21C)[C@@]1(C)CCC2(C[C@H]1C[C@H]3OC(C)=O)OOC1(CCCCC1)OO2 (stereo not given in full)	–	54.2 µM
CC(CC[C@@]1(O)OC2C[C@H]3[C@@H]4CC[C@H]5CC(OC6OC(CO)C(OC7OC(CO)C(O)C(OC8OCC(O)C(O)C8O)C7OC7OC(CO)C(O)C(O)C7O)C(O)C6O)[C@H](O)CC5(C)[C@H]4CCC3(C)C2[C@@H]1C)COC1OC(CO)C(O)C(O)C1O (stereo not given in full)	–	34 µM

Structure (SMILES)	GI50	TGI
COc1ccc(-c2nn3ncccc3c2-c2ccnc(Nc3ccc4c(c3)OCCO4)n2)cc1	9.4 µM	> 25 µM
COc1ccccc1C1C(C#N)=C(N)Oc2cc(O)ccc21 (stereo not given)	47.7 µM	> 100 µM
O=C1C=C(Nc2ccc(S(=O)(=O)Nc3ncccn3)cc2)c2ccccc2C1=O	–	47.7 µM
COc1ccc2c3c1OC1C(OC)(OC)CC4(C=C2)CN(C)CCC314 (stereo not given)	–	> 100 µM
O=C(C1OC1c1cccc([N+](=O)[O-])c1)C12CC3CC(CC(C3)C1)C2 (stereo not given)	–	23.1 µM
O=[N+]([O-])C(C(Cl)=C(Cl)Cl)=C(n1cncn1)n1cncn1	–	> 100 µM
NS(=O)(=O)c1nnc(NS(=O)(=O)c2ccc([N+](=O)[O-])cc2)s1	–	> 100 µM
Cc1c(C)c2c(c(C)c1OCC(=O)O)CC[C@@](C)(CCC[C@@H](C)CCC[C@@H](C)CCCC(C)C)O2	84.4 µM	161 µM
N#Cc1c(-c2ccc([N+](=O)[O-])cc2)cc(-c2ccc(Nc3ccnc4cc(Cl)ccc34)cc2)nc1N	–	52.8 µM
Cc1noc(C)c1-c1cnc2c(-c3ccc(C(=O)O)cc3)cn([C@@H](C)c3ccccn3)c2c1	1.41 µM	> 100 µM
Cn1cncc1-c1c(F)cncc1NC(=O)c1c(N)nn2cc(F)cnc12	0.277 µM	52 µM
C=Cc1c(C)c2cc3[nH]c(cc4nc(cc5nc(cc1[nH]2)C(C)=C5CCC(=O)N(CC)CC)C(CCC(=O)N(CC)CC)=C4C)c(C)c3C=C	–	> 100 µM
CCC(C)(O)c1cn(-c2ccc(S(=O)(=O)O)cc2)nn1 (stereo not given)	–	> 100 µM
CCN(CC)c1ccc(N=Nc2ccc(-c3nc4cccn(C)c-4n3)cc2)cc1	–	44.8 µM
CCN(CC)c1nc(NC2CCCCC2)c2nc(N(CC)CC)nc(NC3CCCCC3)c2n1	–	> 100 µM
CCOc1cc(-c2nc3cc(F)ccc3s2)ccc1O	–	29.8 µM
Cn1cc(C2=C(c3ccccc3C(F)(F)F)C(=O)NC2=O)c2ccccc21	10.8 µM	> 25 µM
CC12OC(C(=O)C13CCC3)C1C(=O)c3ccc4c(ccc5ccccc54)c3C(=O)C12 (stereo not given)	16.5 µM	41.6 µM
OC(COc1ccccc1)CN1CCCCC1 (stereo not given)	–	> 100 µM
CC1(C)OC2OC(COC(=O)c3ccc(C#N)cc3)C3OC(C)(C)OC3C2O1 (stereo not given)	–	> 75 µM
c1ccc(C2CC(c3ccc4ccccc4c3)=Nc3ccccc3S2)cc1 (stereo not given)	–	47.9 µM
COc1cccc2cc(C(=O)NC34CC5CC(CC(C5)C3)C4)c(=N)oc12	–	> 100 µM
